Publication PMC4336329 (PLoS ONE, 2015)
Screen size: about 310,000 compounds; about 2,200 (0.71%) showed an effect of 50% or more. The effect is printed as a negative number. The list shows a part of the results.

molecular target: human ether-à-go-go-related gene (hERG) potassium channel (human, UniProt Q12809); experiment: primary screen, population patch clamp on CHO cells stably expressing hERG
Sequence (Q12809 whole entry, looked up): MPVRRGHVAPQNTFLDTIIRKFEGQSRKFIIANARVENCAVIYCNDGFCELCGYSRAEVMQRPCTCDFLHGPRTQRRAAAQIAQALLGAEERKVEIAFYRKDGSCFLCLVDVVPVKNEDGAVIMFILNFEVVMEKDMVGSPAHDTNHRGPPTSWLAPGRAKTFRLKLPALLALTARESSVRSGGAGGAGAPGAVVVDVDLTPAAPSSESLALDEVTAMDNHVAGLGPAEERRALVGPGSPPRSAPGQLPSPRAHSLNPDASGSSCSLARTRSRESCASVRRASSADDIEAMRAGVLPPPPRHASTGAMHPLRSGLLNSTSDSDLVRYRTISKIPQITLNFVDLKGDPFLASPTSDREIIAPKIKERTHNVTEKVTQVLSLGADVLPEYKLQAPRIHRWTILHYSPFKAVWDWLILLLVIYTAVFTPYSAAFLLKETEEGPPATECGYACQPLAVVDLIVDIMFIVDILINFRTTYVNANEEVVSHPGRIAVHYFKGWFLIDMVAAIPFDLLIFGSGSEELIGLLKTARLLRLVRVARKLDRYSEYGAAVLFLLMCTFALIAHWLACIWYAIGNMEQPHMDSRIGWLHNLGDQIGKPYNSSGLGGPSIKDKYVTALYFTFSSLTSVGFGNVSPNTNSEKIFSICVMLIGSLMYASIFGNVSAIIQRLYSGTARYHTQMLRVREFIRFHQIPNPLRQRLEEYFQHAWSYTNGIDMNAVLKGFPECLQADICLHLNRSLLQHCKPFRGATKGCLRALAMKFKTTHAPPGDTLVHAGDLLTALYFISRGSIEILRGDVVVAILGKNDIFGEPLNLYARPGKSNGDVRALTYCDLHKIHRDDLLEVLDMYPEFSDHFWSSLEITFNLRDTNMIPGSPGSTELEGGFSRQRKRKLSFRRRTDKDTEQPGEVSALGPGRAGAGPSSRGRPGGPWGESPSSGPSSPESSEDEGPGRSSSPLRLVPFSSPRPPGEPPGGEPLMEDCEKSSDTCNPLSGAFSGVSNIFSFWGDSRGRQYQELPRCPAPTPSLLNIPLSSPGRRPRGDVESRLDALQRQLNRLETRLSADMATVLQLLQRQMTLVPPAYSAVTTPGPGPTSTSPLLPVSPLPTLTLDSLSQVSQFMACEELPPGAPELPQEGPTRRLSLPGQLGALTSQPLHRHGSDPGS

Row | SMILES | hERG current change (%, negative = inhibition) at 1uM [%]
1 | O=C1C[C@H]2[C@H](CO)[C@@H](OC(=O)c3ccc(-c4ccccc4)cc3)C[C@H]2O1 | 9.31
2 | O=C(N/N=C/c1ccco1)c1cccc(S(=O)(=O)Nc2ccccc2Cl)c1 | 5.29
3 | O=C(N/N=C/c1ccc(OC(F)F)cc1)c1cccc(S(=O)(=O)N2CCOCC2)c1 | 1.24
4 | CCOC(=O)N1CCC(N2C(=O)c3cc(C(=O)NC4CCCCC4)ccc3C2O)CC1 (stereo not drawn) | -2.75
5 | COc1cnn(-c2ccc([N+](=O)[O-])cc2)c(=O)c1Cl | 10.3
6 | O=C(O)c1cccc(Cn2c(Cl)c(/C=N/NC(=O)c3ccc(O)cc3)sc2=O)c1 | 2.77
7 | Cc1cccc(C)c1NC(=O)CN(C)C(=O)CC1Sc2ccccc2NC1=O (stereo not drawn) | 11.6
8 | COc1ccc(CCNC2CC(=O)N(CCc3ccccc3)C2=O)cc1OC (stereo not drawn) | 8.77
9 | COc1cc(C(C)=O)ccc1OCC(O)CNCC(O)c1ccccc1.O=C(O)C(=O)O (stereo not drawn) | 8.95
10 | CC1CCCCN1Cc1c(O)ccc2c(=O)c(-c3nc4ccccc4s3)coc12 (stereo not drawn) | 1.24
11 | NC(=O)c1nc(-c2ccccc2)c(-c2ccccc2)[nH]c1=O | 9.1
12 | O=C(c1ccccc1)c1cnc(-c2ccc(Cl)cc2)s1 | 12.1
13 | COc1cnc(-c2ccccn2)nc1Sc1ccccc1Cl | 5.73
14 | Cc1ccc(-n2ncc3c(NCc4ccc5c(c4)OCO5)ncnc32)c(C)c1 | 6.98
15 | O=C(CCN1C(=O)S/C(=C/c2ccccc2)C1=O)Nc1ccc(O)c(C(=O)O)c1 | 16.7
16 | O=C1CCCc2[nH]c(-c3ccccc3)nc21 | 7.63
17 | O=c1c(/C=N/O)coc2ccc3ccccc3c12 | -2.82
18 | CCOc1ccc(S(=O)(=O)Nc2cccc(C(=O)NCC(c3ccc(OC)cc3)N3CCOCC3)c2)cc1 (stereo not drawn) | 12.6
19 | Br.CN(/N=C/c1ccncc1)C1=NCCN1 | 13.1
20 | CCCOC(=O)C1=C(C)NC2=C(C(=O)CC(C)(C)C2)C1c1cccnc1 (stereo not drawn) | 12.6
21 | Cc1nn(C)c(C)c1NC(=O)CN1CCC(O)(c2ccc3c(c2)OCO3)CC1 | 6.06
22 | COC(c1ccccc1)c1nnc(CCC(=O)NC2CCCCC2)o1 (stereo not drawn) | 3.87
23 | O=C(c1ccc(Cn2c(=O)[nH]c3ccccc3c2=O)cc1)N1CCN(c2ccc(F)cc2)CC1 | 9.82
24 | Cc1nc(CS(=O)(=O)c2ccccn2)sc1C(=O)NNC(=O)c1c(F)cccc1Cl | 15.4
25 | COc1ccc(CCN(Cc2ccccn2)C(=S)Nc2ccccc2C)cc1OC | 6.09
26 | CC/C(=N\NC(=O)Nc1ccccc1)c1c(O)n(Cc2ccccc2)c(=O)[nH]c1=O | 9.36
27 | Cc1cc(C)n(-c2nc3ccccc3c(=O)n2OCCOc2ccccc2)n1 | 8.15

Row | SMILES | hERG current change (%, negative = inhibition) at 1uM [%]
28 | CC1CCCC(NS(=O)(=O)c2cc(Br)cnc2N)C1C (stereo not drawn) | 10.6
29 | NC1=NC(c2cn(-c3ccccc3)nc2-c2cccs2)n2c(nc3ccccc32)N1 (stereo not drawn) | 4.06
30 | C[C@H](NC(=O)NC1CCCc2ccccc21)C(=O)O (stereo partly drawn) | 17.2
31 | O/N=C/c1cn(-c2ccccc2)nc1-c1ccc2c(c1)OCCO2 | 6.86
32 | COc1ccc(CCNC(=O)[C@H](C)N2C(=O)N3CCc4c([nH]c5ccccc45)[C@@]3(C)C2=O)cc1 | 7.34
33 | CCOc1ccc(NS(=O)(=O)c2cc(Cl)ccc2OC)cc1 | 5.37
34 | CC1(C)NC(=O)N(CC(=O)N2CCN(c3ccc([N+](=O)[O-])cc3)CC2)C1=O | -29.1
35 | Cc1cccc(C)c1OCCCCN1CCNCC1.O=C(O)C(=O)O | 14.3
36 | C=CCOc1ccc(/C(O)=C2\C(=O)C(=O)N(CCCOC)C2c2ccc(O)c(OC)c2)cc1 (stereo not drawn) | 14.7
37 | C=CCn1c(Cc2ccc(OC)cc2)nnc1SCC(=O)NCCc1ccccc1 | -11.7
38 | N/C(=N\NC(=O)c1ccc(F)cc1)c1cc2ccccc2oc1=O | 2.42
39 | O=[N+]([O-])c1ccc(N(CCO)Cc2ccccc2)c([N+](=O)[O-])c1 | 15.4
40 | O=C(CSc1nnc(-c2ccccn2)n1Cc1ccco1)c1ccccc1 | -20.7
41 | CS(=O)(=O)c1nsc2nc(=O)c(/C=C3\C=Nc4ccccc43)c(N)n12 | 9.52
42 | CCn1c(CNC(=O)c2ccccc2F)cc2cc(C)ccc21 | 14.8
43 | CN(C)C(=O)c1ccc2c(c1)n(C)c(=O)n2C | 6.44
44 | CCOC(=O)C1C2C=CC3(CN(Cc4ccco4)C(=O)C13)O2 (stereo not drawn) | 19.4
45 | O=S(=O)(NCc1cccnc1)c1cc(Cl)ccc1Cl | 14.4
46 | N#Cc1ccc(S(=O)(=O)N2CCC(C(=O)Nc3cccc(C(=O)NC4CC4)c3)CC2)cc1 | 5.83
47 | O=[N+]([O-])c1ccccc1OCC(O)CN1CCN(CC(O)COc2ccccc2[N+](=O)[O-])CC1 (stereo not drawn) | -15.3
48 | Cc1onc(-c2ccccc2Cl)c1C(=O)NCc1cccs1 | 3.24
49 | COC(=O)c1ccsc1NC(=O)CS(=O)(=O)c1ccccc1 | 4.02
50 | Cc1c(NC(=O)c2c(NC(=O)CNC3CC3)sc3c2CCCC3)c(=O)n(-c2ccccc2)n1C.O=C(O)C(=O)O | 15.1
51 | Cc1nnc(C)n1/N=C/c1c(O)ccc2ccccc12 | 7.17
52 | COc1ccc(CCC(=O)N2c3ccccc3CC2C)cc1 (stereo not drawn) | 9.07
53 | COc1cccc(CNC(=O)CCC2CCCN(C(=O)c3cc(C)[nH]n3)C2)c1 (stereo not drawn) | 8.79
54 | Cc1cccc([C@@H]2[C@@H]3C(=O)N(C)C(=O)[C@@H]3[C@@H]3C(=O)Nc4ccccc4C(=O)N23)c1 | 14.6
